Assay results as given in patent publication US20130078720A1 (AGENCY FOR SCIENCE TECHNOLOGY AND RESEARCH, published 2013).

Experiments:
[1] = molecular target: T1, PR domain-containing protein 14 (PRDM14) (human, UniProt Q9GZV8 1-571); assay: co-IP from hESC whole cell lysate with anti-Nanog antibody, western with PRDM14 antibody (FIG. 14H)
T1 construct: the whole entry is used; also called native PRDM14
T1 sequence: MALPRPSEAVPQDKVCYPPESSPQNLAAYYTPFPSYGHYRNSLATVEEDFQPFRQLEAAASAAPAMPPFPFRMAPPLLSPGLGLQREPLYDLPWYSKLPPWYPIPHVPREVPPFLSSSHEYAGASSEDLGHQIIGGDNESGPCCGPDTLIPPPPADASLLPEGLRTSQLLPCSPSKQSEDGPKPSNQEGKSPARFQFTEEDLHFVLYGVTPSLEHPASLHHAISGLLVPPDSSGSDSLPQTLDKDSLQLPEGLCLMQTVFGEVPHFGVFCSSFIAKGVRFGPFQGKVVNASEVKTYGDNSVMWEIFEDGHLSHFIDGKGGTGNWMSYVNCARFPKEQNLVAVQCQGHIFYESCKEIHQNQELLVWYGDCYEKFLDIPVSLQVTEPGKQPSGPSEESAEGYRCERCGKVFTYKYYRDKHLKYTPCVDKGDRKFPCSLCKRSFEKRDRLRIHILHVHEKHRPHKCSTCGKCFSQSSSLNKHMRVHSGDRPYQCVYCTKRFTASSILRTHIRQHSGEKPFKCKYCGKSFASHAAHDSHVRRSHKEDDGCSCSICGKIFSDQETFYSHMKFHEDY

HA tagged PRDM14 = molecular target: T2, HA tagged PRDM14 (human, UniProt Q9GZV8 1-571); assay: co-IP from lysate of 293T cells co-transfected with HA tagged PRDM14 and NANOG, with anti-HA and anti-Nanog antibody (FIGS. 14I, 14J)
T2 construct: whole cell lysate used for co-IP; not shown: HA tag
T2 sequence: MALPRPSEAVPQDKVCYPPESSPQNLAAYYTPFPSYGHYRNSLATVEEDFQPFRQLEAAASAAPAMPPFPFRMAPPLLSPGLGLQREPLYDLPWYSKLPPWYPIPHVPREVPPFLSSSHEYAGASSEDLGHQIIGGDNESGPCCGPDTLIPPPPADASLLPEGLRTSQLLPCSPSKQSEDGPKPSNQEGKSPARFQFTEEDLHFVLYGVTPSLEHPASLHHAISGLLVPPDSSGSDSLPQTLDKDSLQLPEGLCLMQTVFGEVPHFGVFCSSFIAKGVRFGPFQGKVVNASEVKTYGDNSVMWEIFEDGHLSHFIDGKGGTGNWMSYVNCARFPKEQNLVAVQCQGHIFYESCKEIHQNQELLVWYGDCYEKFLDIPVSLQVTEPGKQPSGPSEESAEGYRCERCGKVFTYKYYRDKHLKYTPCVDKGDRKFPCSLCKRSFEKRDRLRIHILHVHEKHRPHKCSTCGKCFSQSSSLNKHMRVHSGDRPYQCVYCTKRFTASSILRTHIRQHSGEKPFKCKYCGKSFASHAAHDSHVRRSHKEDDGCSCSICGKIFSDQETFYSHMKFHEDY

binding result [1]: binds | binding result (HA tagged PRDM14): binds
B1: NANOG (other, human, UniProt Q9H9S0 1-305, looked up)
chain: MSVDPACPQSLPCFEASDCKESSPMPVICGPEENYPSLQMSSAEMPHTETVSPLPSSMDLLIQDSPDSSTSPKGKQPTSAEKSVAKKEDKVPVKKQKTRTVFSSTQLCVLNDRFQRQKYLSLQQMQELSNILNLSYKQVKTWFQNQRMKSKRWQKNNWPKNSNGVTQKASAPTYPSLYSSYHQGCLVNPTGNLPMWSNQTWNNSTWSNQTQNIQSWSNHSWNTQTWCTQSWNNQAWNSPFYNCGEESLQSCMQFQPNSPASDLEAALEAAGEGLNVIQQTTRYFSTPQTMDLFLNYSMNMQPEDV
notes: No tag is stated
